# Laboratory results published in PubChem BioAssay AID504332 (National Center for Advancing Translational Sciences (NCATS), 2011).
# Hit rate of the full screen: of about 350,000 compounds, about 31,000 (8.9%) were called active. The shares of active, inactive and inconclusive entries below differ from those in the screen. Calls come from the whole dose curve; as a rule, active = well fitted inhibition curve with a large enough effect; inconclusive = small, poorly fitted or top-dose-only effect; inactive = no such curve, though single readings can be large or run the other way. Where the call is inconclusive, the potency comes from a doubtful curve fit.
# Target: Histone-lysine N-methyltransferase EHMT2 (Homo sapiens) (UniProt Q96KQ7)
# UniProt Q96KQ7, sequence (Q96KQ7 whole entry, looked up): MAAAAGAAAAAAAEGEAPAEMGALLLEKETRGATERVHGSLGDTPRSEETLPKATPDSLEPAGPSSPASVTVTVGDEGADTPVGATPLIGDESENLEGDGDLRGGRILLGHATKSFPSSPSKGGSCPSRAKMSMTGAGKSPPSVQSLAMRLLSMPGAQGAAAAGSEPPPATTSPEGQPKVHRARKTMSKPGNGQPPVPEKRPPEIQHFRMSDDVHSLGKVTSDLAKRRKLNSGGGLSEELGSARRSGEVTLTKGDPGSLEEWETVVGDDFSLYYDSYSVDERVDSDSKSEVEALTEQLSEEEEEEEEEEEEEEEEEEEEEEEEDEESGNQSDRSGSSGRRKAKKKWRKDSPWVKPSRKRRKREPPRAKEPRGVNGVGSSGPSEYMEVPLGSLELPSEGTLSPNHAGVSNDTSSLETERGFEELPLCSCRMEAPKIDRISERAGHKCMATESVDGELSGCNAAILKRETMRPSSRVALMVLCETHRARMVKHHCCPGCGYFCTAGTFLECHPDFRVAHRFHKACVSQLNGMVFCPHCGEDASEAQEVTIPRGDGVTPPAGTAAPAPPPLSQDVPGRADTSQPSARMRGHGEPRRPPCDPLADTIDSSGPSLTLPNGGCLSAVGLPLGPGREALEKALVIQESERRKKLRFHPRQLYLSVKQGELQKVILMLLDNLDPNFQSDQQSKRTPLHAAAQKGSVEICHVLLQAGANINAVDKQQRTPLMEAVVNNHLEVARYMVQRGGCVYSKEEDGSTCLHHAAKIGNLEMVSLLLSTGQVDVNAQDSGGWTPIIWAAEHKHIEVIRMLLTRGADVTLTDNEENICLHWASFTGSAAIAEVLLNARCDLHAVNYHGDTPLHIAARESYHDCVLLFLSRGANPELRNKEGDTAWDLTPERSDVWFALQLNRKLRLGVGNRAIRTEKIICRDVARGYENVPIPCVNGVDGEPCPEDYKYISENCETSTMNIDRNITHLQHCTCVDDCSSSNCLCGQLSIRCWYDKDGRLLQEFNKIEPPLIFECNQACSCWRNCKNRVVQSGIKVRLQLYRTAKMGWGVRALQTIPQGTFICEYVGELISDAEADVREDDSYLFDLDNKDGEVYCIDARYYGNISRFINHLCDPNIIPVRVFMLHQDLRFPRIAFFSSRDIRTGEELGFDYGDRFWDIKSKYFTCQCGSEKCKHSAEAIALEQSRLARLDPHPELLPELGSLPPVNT
# Test: qHTS Assay for Inhibitors of Histone Lysine Methyltransferase G9a; note: nearly all actives have a fitted effect of over 75% in size
# Conditions: G9a H3K9 monomethylation, AlphaScreen, 2 h; activity, negative = inhibition: at 59 µM (top of the series) unless noted
# Summary of the method: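 Using a bead-based AlphaScreen, monomethylated H3K9 product from 2 h room-temperature reactions (G9a 20 nM, peptide 500 nM, SAM 20 uM) was detected with 0.5 ug/mL rabbit anti-H3K9me1 antibody.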
# % is set by controls: 0 for no effect and ±100 for the full control effect; potency is the fitted concentration of half-maximal effect; tags give direction and shape of the fitted curve.
Structure (SMILES),"activity, negative = inhibition",Potency
CCOC(=O)c1ccccc1NC(=O)Cn1c(=O)n(Cc2nc(C)no2)c(=O)c2ccccc21,inactive: -28.4%,
Cc1cccc(-c2noc(CN(C(=O)c3ccc(Br)o3)C(C)C)n2)c1,inconclusive: -81.4% [inhibitor],
CN(C)c1ccc(C(CNS(=O)(=O)c2ccc(Cl)cc2)N2CCOCC2)cc1 (centres undefined),,"inconclusive: 17.8 µM [inhibitor, single point]"
COc1cc2c(cc1OC)C(C(=O)N1CCCC1)C(c1ccccc1F)N(C)C2=O (centres undefined),,"inconclusive: 70.8 µM [inhibitor, partial curve, poor fit]"
CCc1nn(CC(=O)Nc2cccc(C(C)=O)c2)c(=O)c2cc3sccc3n12,,"inconclusive: 2.82 µM [inhibitor, full curve, poor fit]"
CCS(=O)(=O)c1ncc(Cl)c(C(=O)NCc2ccc(OC)cc2)n1,,"inconclusive: 28.2 µM [inhibitor, partial curve, poor fit]"
Cc1ccc(O)c(C=Nc2cc(C)ccc2O)c1,inactive: -17.4%,
CCCc1nnc2n1N=C(c1ccc(OC)c(OC)c1)CS2,,"inconclusive: 31.6 µM [inhibitor, single point]"
CCc1cccc(C)c1NC(=O)CN(C)S(=O)(=O)c1ccc(-c2ccc(=O)[nH]n2)s1,inactive: -6.78% [at 102 µM],
COc1cc(/C=C2\CCCc3c2nc2ccccc2c3C(=O)O)cc(Br)c1O,,active: 39.8 µM
COc1ccc2nc(SCc3nc(N)nc(Nc4ccccc4)n3)[nH]c2c1,,"inconclusive: 28.2 µM [inhibitor, single point]"
CC(C)CCNC(=S)Nc1ccccc1F,inactive: 10.5%,
Cc1ccc(OCC(=O)c2cc(C)n(Cc3cccs3)c2C)c([N+](=O)[O-])n1,,"inconclusive: 3.16 µM [inhibitor, partial curve, poor fit]"
Cc1nn(C(=O)c2ccco2)c(C)c1Br,inactive: 20.4% [at 102 µM],
O=C1C(=O)N(CCN2CCOCC2)C(c2ccccn2)/C1=C(/O)c1ccc(Cl)cc1 (centres undefined),,active: 7.94 µM
CCc1ccc(C2C(C(=O)O)c3ccccc3C(=O)N2C)cc1 (centres undefined),,active: 56.2 µM
O=C1CC(N2CCSCC2)C(=O)N1c1cccc(Br)c1 (centres undefined),,"inconclusive: 17.8 µM [inhibitor, partial curve, poor fit]"
CCn1c(/C=C2\C(=O)Nc3ccccc32)nc2ccccc2c1=O,,"inconclusive: 1.78 µM [inhibitor, partial curve, poor fit]"
Cc1ccccc1N1C(=O)c2sc3nc4c(c(=O)n3c2C1=O)CCC4,,active: 8.91 µM
CCOC(=O)c1c(NC(=O)c2cccnc2Cl)sc(C(=O)N(C)C)c1C,,active: 25.1 µM
CC(C)Cn1c(N)c(C(=O)COC(=O)c2cc(C3CC3)nc3ccccc23)c(=O)n(C)c1=O,,"inconclusive: 79.4 µM [inhibitor, partial curve, poor fit]"
O=C(OCc1nnc(-c2cccs2)o1)C1=NN(c2ccccc2)C(=O)CC1,inactive: -3.48%,
CC(C)(C)c1nnc(NS(=O)(=O)c2ccc([N+](=O)[O-])cc2)s1,,active: 10 µM
CCCCCCCCCCCC(=O)NC(Cc1ccc(OC)c([N+](=O)[O-])c1)C(=O)O (centres undefined),,active: 28.2 µM
Cc1cc([N+](=O)[O-])nn1Cc1noc(C(=O)NCCc2ccccn2)n1,inactive: -0.567% [at 102 µM],

Structure (SMILES),"activity, negative = inhibition",Potency
CSc1nc(O)c(C(c2ccc(O)cc2)c2c(O)nc(SC)[nH]c2=O)c(=O)[nH]1,,active: 10 µM
CCOC(=O)CC(NC(=O)C1c2ccccc2Oc2ccccc21)c1ccccc1Cl (centres undefined),inactive: 6.67%,
COC1CC(O[C@H]2/C(C)=C/CC3CC(C[C@]4(CCC(C)C(C5CCCCC5)O4)O3)OC(=O)[C@H]3C=C(C)/C(=N/O)C4OC/C(=C\C=C\[C@@H]2C)[C@@]43O)OC(C)C1O (some centres undefined),inactive: -10.3% [at 2.33 µM],
COC(=O)c1ccc(Oc2cc(C)nc(SC)n2)cc1,inactive: 10.8%,
c1ccc(CCn2nnnc2C(c2cccnc2)N2CCN(c3ccccc3)CC2)cc1 (centres undefined),,"inconclusive: 79.4 µM [inhibitor, single point]"
CCN(CC)S(=O)(=O)c1cc(NS(=O)(=O)c2cccc(C(=O)O)c2)ccc1C,,"inconclusive: 70.8 µM [inhibitor, single point]"
CC(=O)c1cccc(NC(=O)CCn2c(=S)oc3ccccc32)c1,,"inconclusive: 89.1 µM [inhibitor, single point]"
CSc1ccc(-c2nc3cccc(C)n3c2Nc2ccc(Cl)cc2)cc1,,"inconclusive: 11.2 µM [inhibitor, partial curve, poor fit]"
COC(=O)N1C(=O)[C@](c2ccsc2)(C(C)C)N1C(=O)OC,,"inconclusive: 79.4 µM [inhibitor, partial curve, poor fit]"
Cc1cc(Br)ccc1OCCN1CC(C)OC(C)C1 (centres undefined),,"inconclusive: 3.55 µM [inhibitor, single point]"
Cc1ccc(-n2ncc3c(NCc4ccccn4)ncnc32)c(C)c1,,"inconclusive: 1.58 µM [inhibitor, full curve, poor fit]"
COCCNC(=S)NNc1cccc(C(=O)O)c1,,active: 10 µM
O=C(c1nc2ccccn2c1CNCCCn1ncc2ccccc21)N1CCOCC1,,"inconclusive: 44.7 µM [inhibitor, partial curve, poor fit]"
COc1ccc(Cl)cc1C(=O)NCC(=O)OCc1ccccc1,inactive: -30.3% [at 102 µM],
O=C(O)c1ccc(NC(=O)c2cc(S(=O)(=O)N3CCCCC3)c(Cl)cc2Cl)cc1,inactive: -13.5%,
COc1cc(OC)cc(OC)c1,inconclusive: -75.8% [inhibitor] [at 2.33 µM],
Cc1cccc(NC2SC(=O)NC2=O)c1 (centres undefined),,active: 50.1 µM
Cc1cc(Br)c2c(c1)/C(=C/C(=O)c1cccs1)C(=O)N2,,"inconclusive: 39.8 µM [inhibitor, partial curve]"
Cc1ccc(S(=O)(=O)CCSc2cccc(C(=O)Nc3ccccc3C(=O)O)c2)cc1,,"inconclusive: 28.2 µM [inhibitor, single point]"
c1ccc(C2Oc3ccccc3C3CC(c4cccs4)=NN32)cc1 (centres undefined),inactive: -47.9%,
O=C(COc1ccccc1)N1CCN=C1SCc1cccnc1,,"inconclusive: 79.4 µM [inhibitor, single point]"
CCC(C)(C)NC(=O)C(c1ccc(C)cc1)N(Cc1ccco1)C(=O)CCC(=O)Nc1nccs1 (centres undefined),,"inconclusive: 79.4 µM [inhibitor, single point]"
c1ccc(C(c2ccccc2)N2CCN(Cc3nc(-c4cnccn4)no3)CC2)cc1,,"inconclusive: 22.4 µM [inhibitor, partial curve, poor fit]"
CCn1c(COc2ccc(C)cc2)nnc1SCC(=O)Nc1ccc2c(c1)OCCO2,inactive: -24.2% [at 102 µM],
COc1cc(/C=C2/C(=N)N3N=C(C(C)C)SC3=NC2=O)ccc1OS(=O)(=O)c1ccccc1,inactive: -14% [at 102 µM],

Structure (SMILES),"activity, negative = inhibition",Potency
Cc1c(O)ccoc1=O,inactive: -122%,
COc1ccc(CNC(=O)CC2C(=O)NCCN2CC(C)(C)C)c(OC)c1 (centres undefined),,"inconclusive: 44.7 µM [inhibitor, partial curve, poor fit]"
N#Cc1ccc(CN2CCN(C(=O)CNC(=O)Cc3ccccc3)CC2)cc1,,"inconclusive: 50.1 µM [inhibitor, partial curve, poor fit]"
Cc1ccc2[nH]c(=O)c(C(c3nnnn3CCc3ccccc3)N3CCOCC3)cc2c1 (centres undefined),,active: 7.94 µM
Cc1ccccc1-c1noc(-c2ccc(NCc3ccco3)c([N+](=O)[O-])c2)n1,,"inconclusive: 39.8 µM [inhibitor, partial curve, poor fit]"
O=C(CCc1ccccc1)NNC(=S)NC(=O)c1ccc(Cl)cc1,,active: 1.58 µM
O=C(NCCOc1cccc(Cl)c1Cl)c1cc(-n2cnnc2)ccc1Cl,inactive: 19.7% [at 2.33 µM],
COc1ccc(/C=N/NC(C)(C)C)c(OC)c1,,active: 12.6 µM
CCOc1ncccc1C(=O)N1CCN(c2cc(Cl)ccc2C)CC1,inactive: 7.48% [at 102 µM],
CCOc1ccc(NC(=O)c2cc(S(=O)(=O)NC3CCCCCC3)ccc2F)cc1,inactive: 0.694%,
CCN=c1scc(C)n1/N=C/c1cc(Br)c(O)c(OC)c1,,active: 10 µM
Cc1ccc(NC(=S)N2CCN(S(C)(=O)=O)CC2)cc1C,,"inconclusive: 35.5 µM [inhibitor, partial curve, poor fit]"
Cc1cc2c([nH]c3ccccc32)c2c1OC(C)(C)C=C2,inconclusive: -51.8% [inhibitor],
C(=N\N1CCN(C2c3ccccc3-c3ccccc32)CC1)/c1ccncc1,inconclusive: -132% [inhibitor],
COc1ccccc1-c1coc2cc(OC(=O)/C=C/c3ccccc3)ccc2c1=O,inactive: 26.4%,
Cc1ccc(CCNS(=O)(=O)c2cnc[nH]2)cc1,inactive: -10.8% [at 12.7 µM],
Cc1cc(C)nc(-n2nc(C)c3c(C(=O)O)cc(-c4cccc(Br)c4)nc32)n1,,"inconclusive: 6.31 µM [inhibitor, single point]"
S=C(Nc1ccc(Nc2ccccc2)cc1)Nc1ccccn1,,active: 10 µM
COc1ccccc1CNC(=O)CSc1ccc(C(=O)Nc2ccccc2OC)cc1[N+](=O)[O-],inactive: 9.57% [at 102 µM],
CCOc1ccc(C2CC(=O)c3c([nH]c(C(=O)OCC4CCCCC4)c3C)C2)cc1 (centres undefined),inactive: 9.64%,
CC1CCCCC1NC(=O)c1cccc(S(=O)(=O)N2CCN(C)CC2)c1 (centres undefined),,active: 44.7 µM
Cc1nc(CNS(=O)(=O)c2cccc(F)c2)cs1,,"inconclusive: 70.8 µM [inhibitor, partial curve, poor fit]"
O=c1oc2ccccc2c(N2CCN(c3ccccc3F)CC2)c1CN1CCCC1,inactive: -26.3%,
O=c1ccc2cc3c4c(c2o1)CCCN4CCC3,,"inconclusive: 50.1 µM [inhibitor, partial curve, poor fit]"
